The results in this text go back to article PMC12136788.

This is one part of the list.

T1: UNK ZnF1-3 (human, UniProt Q9C0B0 31-174)
T1 sequence: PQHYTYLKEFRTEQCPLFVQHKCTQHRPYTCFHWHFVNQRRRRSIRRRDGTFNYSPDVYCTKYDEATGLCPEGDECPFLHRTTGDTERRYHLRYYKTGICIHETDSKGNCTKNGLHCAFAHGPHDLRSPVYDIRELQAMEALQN

B1: 21594510_21594630_599_3pUTR_ENSG00000124766_ENST00000244745|human|control|control (ssRNA)
RNA: GGGAGUUCUACAGUCCGACGAUCAACUCCUCGCAGGGGCGGAGGUGGGUAAAGAGAGAAAAGUCCCCAAAAGAUUUGGGGAAGGAGUUCUCCGCCUCUCGCAGAGGAGUUAUAGUUCCCAGGCUGGAGAGUCUCUCUCUCCCUCAACAGAGGAUUGAGCAUCA
B2: chr8:95500983:95500984:-_ENSG00000164944_ENST00000437199|hu_hu|hu_hu_hu_mus_True|8_48 (ssRNA)
RNA: GGGAGUUCUACAGUCCGACGAUCAGAACACAUCUAUCGAGUAAAGGACCGUACAUGACGGCCUCUACCACUGCCUCCACUAACAAAACUUUCCUCUGAGCCUCCACUGCCGCUAUUUGUACUAGCCCCAGGAAGGUCCAGGCCCAACAGAGGAUUGAGCAUCA
B3: chr5:128440902:128440903:+_ENSG00000066583_ENST00000173527|hu_mus|hu_hu_hu_mus_True|98_108 (ssRNA)
RNA: GGGAGUUCUACAGUCCGACGAUCUUGAACCGUGCUCCCAAGACCUUUGGGGUAUUGUUCCGUUAUGAUAACUGGAAUCCCUAAGAUCCGAGCUCCUUGCAACAGUCUCUGUCCCACACUAAUGAUGUCCCCAAAGUAUUUGAUCAACAGAGGAUUGAGCAUCA
B4: 24205895_24207654_721_CDS_ENSG00000173960_ENST00000309033|human|control|control (ssRNA)
RNA: GGGAGUUCUACAGUCCGACGAUCCCAGAUCUGUAUAUUAGUAAUGGGUUCCAAGUUGUUCAGUGGAACAGCAGACAAAUUAUUUUUAUUUUCAACUUCAAUAUUCUUUGCUUUAGAAACAAUUUUUGGUGUGGCACUUCCUAGCAACAGAGGAUUGAGCAUCA
B5: 186306252_186307248_4635_CDS_ENSG00000047410_ENST00000367478|human|control|control (ssRNA)
RNA: GGGAGUUCUACAGUCCGACGAUCAUGGUCUCCAGAGGACUGAGCCGAUGUCUCCAUAACCUUAUCCUGUUGUGCUUUAAGUUCUUCAUAUUGAGUCUUGUACCUACGUCCAAUUUUCUUAACUUGAGUAAUAGUUUUGACUUUCAACAGAGGAUUGAGCAUCA
B6: chr2:122217683:122217684:-_ENSG00000074054_ENST00000409078|hu_mus|FALSE|FALSE (ssRNA)
RNA: GGGAGUUCUACAGUCCGACGAUCACGCAAGUGUUGAAAGAAGUUAUCGUACUCAGCAGCCCCAGCCAAGAGUAACGAUCUAAUCUUUUUUAGAGCAUUUACUCUCUGCUCCCAGUCAUGCUUGUCAUCUGACAGGAUUUCUCUCAACAGAGGAUUGAGCAUCA
B7: chr3:100845581:100845582:-_ENSMUSG00000027864_ENSMUST00000102694|mus_mus|motif|central (ssRNA)
RNA: GGGAGUUCUACAGUCCGACGAUCGCUUGUGUGGGGUGCAUCUGCUACUGACUCUAAACCUGGACCCCACCUGGGCGGGAGCGGCCUUCUCAAAAUCUCAUUACACGAGCAGCCCCCAAGGUGGGCUCAAAACAAGCAGAGGAACAACAGAGGAUUGAGCAUCA
B8: chr3:55757038:55757039:-_ENSMUSG00000027799_ENSMUST00000029374|mus_hu|FALSE|FALSE (ssRNA)
RNA: GGGAGUUCUACAGUCCGACGAUCCAUUGGAGCAACAGUUUGUACAGCUGGAAGGUUUUUGCUAGUAGCACCAUUCACAAAACUAGAAGAGGAGGAAGAGGAGGAGGACCCUGAAUCCACGGCACCUGUUGUAUUAAUCAUACUCAACAGAGGAUUGAGCAUCA
B9: 64113564_64114547_1297_CDS_ENSG00000169764_ENST00000394417|human|control|control (ssRNA)
RNA: GGGAGUUCUACAGUCCGACGAUCUCCAUCCAAAGUCUUUGCAUUCACAAUGAUUUCCAUGUCAAUGGCAUUUUGCUCCUGCAGUCUUUUAACUGCUGCAAGAGAAAUCCAUAGGUUGUUUGUAUUAAAUAUUUUGAACUUUGACAACAGAGGAUUGAGCAUCA
B10: chr5:38546887:38546888:-_ENSMUSG00000029126_ENSMUST00000031009|mus_mus|FALSE|FALSE (ssRNA)
RNA: GGGAGUUCUACAGUCCGACGAUCGACCAGCACGGAGACCUUAAACCUCUCGGUGACACCCUCGGUGAUGCUGACGGUGAACUCGGCUAUCUUGGGAGGACGUGCUUUUCCUUUUUUGCGAUCAGGUUCAUAUUCAGUCUUAGUCAACAGAGGAUUGAGCAUCA
B11: 156047345_156047465_522_3pUTR_ENSG00000254726_ENST00000532414|human|control|control (ssRNA)
RNA: GGGAGUUCUACAGUCCGACGAUCGAUGAUUUCCCGCCGGGCUGUGGCCACGUCCUCCCGUCGCCCUGUCACCAUGAACACUGGUUCCUCGCCCCUCACCGGUGUCUUGAUGUAGGUGUUGGUCUUGGCCCUCAAGGCCUUAAUCAACAGAGGAUUGAGCAUCA
B12: 105898293_105898413_168_5pUTR_ENSMUSG00000049354_ENSMUST00000058438|mouse|control|control (ssRNA)
RNA: GGGAGUUCUACAGUCCGACGAUCGCCAGAGAGGCAGCGGGCUGGGGCACAAGACAGGCGGGGACCCGGGCUUGGGUCCGCGGGUCCGAGGGGAGGCGGGGCCGGGGCGGUCAAGAACGGCCUAGCCCUCCAGCGGGUCCUCGGCAACAGAGGAUUGAGCAUCA
B13: 147386883_147387875_1828_3pUTR_ENSMUSG00000029016_ENSMUST00000137724|mouse|control|control (ssRNA)
RNA: GGGAGUUCUACAGUCCGACGAUCUGGGCUCCAUGAUGUCACUGGCUCUCAGCUUGUCCAUUUCCACGUCUGUCUCCCACUCCAGAAGAGGCACACCUCUCAGCCCAAUAUGGACGUCAUAAAUGCCCUUGUUGAACAAGUCUCCAACAGAGGAUUGAGCAUCA
B14: chr2:187370260:187370261:+_ENSG00000065548_ENST00000337859|hu_mus|FALSE|FALSE (ssRNA)
RNA: GGGAGUUCUACAGUCCGACGAUCGCUUUCCCUGCUUUGAAGUCAGCUUUCCGCCUCUCCAUAUCUUGUUCAAGUUUAUCAAUCUUUUCUUGUCUUUUCCUCUUCUUCCACGCGAGAAAAGACUCUAGAGUGAUUUUGGUAACACAACAGAGGAUUGAGCAUCA

The target in this assay is T1, UNK ZnF1-3. As to the kind of experiment: nsRBNS (natural sequence RNA bind-n-seq); RBNS binding buffer (assumed for nsRBNS): 25 mM Tris pH 7.5, 150 mM KCl, 3 mM MgCl2, 0.01% Triton X-100, 500 ug/ml BSA, 20 U/ml SUPERase-In, 4 C; UNK is unkempt and MSI1 is Musashi-1; names of the RNAs are library labels; protein concentration not given here; high values mean tight binding.
B1: the binding signal came out at 0.776 enrichment R. B2: the binding signal stood at 0.778 enrichment R. B3: the binding signal came out at 0.599 enrichment R. B4 had a binding signal of 1.45 enrichment R. Next, B5: 0.903 enrichment R. Next, B6: 0.66 enrichment R; B7: 1.23 enrichment R. B8 showed a binding signal of 1.59 enrichment R. Take B9: the binding signal stood at 0.769 enrichment R. The molecule B10 showed a binding signal of 0.924 enrichment R.

Molecule B11 had a binding signal of 0.753 enrichment R. Next, B12: 1.28 enrichment R. Molecule B13 registered a binding signal of 0.887 enrichment R. Regarding B14, the binding signal is 0.469 enrichment R.
